# Source: paper PMC4336329 (PLoS ONE, 2015)
# In all, about 310,000 compounds went through this assay and about 14,000 (4.5%) showed an effect of 50% or more. Effects have a minus sign here. The list shows a part of the results.
# Biological target: human ether-à-go-go-related gene (hERG) potassium channel (human, UniProt Q12809)
# Assay: primary screen, population patch clamp on CHO cells stably expressing hERG
# 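Also: peak tail current of the secondary pulse compared with the same well before compound.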
# Sequence of human ether-à-go-go-related gene (hERG) potassium channel (Q12809 whole entry, looked up): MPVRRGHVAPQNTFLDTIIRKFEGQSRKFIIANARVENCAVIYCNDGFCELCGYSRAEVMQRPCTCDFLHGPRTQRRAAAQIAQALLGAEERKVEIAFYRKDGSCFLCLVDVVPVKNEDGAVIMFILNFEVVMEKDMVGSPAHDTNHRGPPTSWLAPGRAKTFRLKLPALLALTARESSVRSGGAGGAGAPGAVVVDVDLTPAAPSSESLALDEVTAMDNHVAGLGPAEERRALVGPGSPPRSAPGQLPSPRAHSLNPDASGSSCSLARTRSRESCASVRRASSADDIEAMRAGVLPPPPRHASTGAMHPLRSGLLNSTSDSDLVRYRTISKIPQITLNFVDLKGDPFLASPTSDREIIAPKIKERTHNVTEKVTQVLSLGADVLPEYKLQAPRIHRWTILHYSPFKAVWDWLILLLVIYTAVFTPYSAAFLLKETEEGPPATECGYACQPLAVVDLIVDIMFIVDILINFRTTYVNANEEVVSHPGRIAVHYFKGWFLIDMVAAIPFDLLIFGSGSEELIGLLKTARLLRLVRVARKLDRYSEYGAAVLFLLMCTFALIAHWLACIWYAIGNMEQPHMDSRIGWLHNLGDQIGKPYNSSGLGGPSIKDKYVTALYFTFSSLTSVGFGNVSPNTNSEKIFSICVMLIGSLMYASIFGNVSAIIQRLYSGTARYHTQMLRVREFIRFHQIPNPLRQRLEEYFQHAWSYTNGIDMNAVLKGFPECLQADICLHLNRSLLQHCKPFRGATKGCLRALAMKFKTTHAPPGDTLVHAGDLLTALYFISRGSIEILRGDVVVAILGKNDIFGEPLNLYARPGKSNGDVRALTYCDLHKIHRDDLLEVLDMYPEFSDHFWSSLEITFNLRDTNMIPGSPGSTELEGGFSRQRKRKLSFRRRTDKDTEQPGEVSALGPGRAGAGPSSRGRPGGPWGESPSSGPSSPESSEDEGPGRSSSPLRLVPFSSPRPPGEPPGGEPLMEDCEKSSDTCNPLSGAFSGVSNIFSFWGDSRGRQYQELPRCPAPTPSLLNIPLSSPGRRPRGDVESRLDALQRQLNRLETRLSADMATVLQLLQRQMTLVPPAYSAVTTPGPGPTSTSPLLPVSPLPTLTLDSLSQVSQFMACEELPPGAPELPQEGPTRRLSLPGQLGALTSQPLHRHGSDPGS
row,Structure (SMILES),"hERG current change (%, negative = inhibition) at 10uM"
1,CCC(=O)Nc1nonc1-c1nc2ccccc2n1CCC(C)C,-5.72%
2,COc1ccc(NC(=O)CSc2nnc(C3CCCCC3)n2N)c(OC)c1,9.5%
3,O=C(Nc1cccc(S(=O)(=O)N2CCCCC2)c1)C1CCN(C(=O)c2ccc(Cl)cc2)CC1,-31.7%
4,CCS(=O)(=O)c1ccc2c(c1)N(S(=O)(=O)c1ccc(Cl)cc1)CC(C(=O)O)O2 (centres unmarked),3.39%
5,COc1ccc(NC(=O)CSCC(=O)N(C)CCOc2ccc(Cl)cc2)cc1,-40.1%
6,Cc1ccnc(NS(=O)(=O)c2ccc(N=CC3=C(O)CC(C)(C)CC3=O)cc2)n1,-9.43%
7,C1CC2NCCC3NCCC(N1)N32 (centres unmarked),6.04%
8,CC(C)NC(=O)NC(=O)COC(=O)Cc1ccsc1,0.835%
9,Cc1ccc(NCC(=O)Nc2c(C)n(C)n(-c3ccccc3)c2=O)cc1S(=O)(=O)N(C)C,5.73%
10,Cc1cccc(N(C)S(=O)(=O)c2ccc3c(c2)NC(=O)CC(=O)N3)c1,31.8%
11,Cc1c(NC(=O)COC(=O)C(c2ccc(Cl)cc2)C(C)C)c(=O)n(-c2ccccc2)n1C (centres unmarked),0.0929%
12,O=c1c2ccccc2nc(-c2ccccc2)n1-c1nccs1,-1.69%
13,Br.CCCCCCCCCCn1c2c(c(=N)c3c1CCC3)CCC2,-78.9%
14,c1ccc(CN2CCN(c3nc4ccccc4c4ccccc34)CC2)cc1,-3.19%
15,O=C(CCc1nnc2ccc(NCc3ccco3)nn12)N1CCN(c2ccc(F)cc2)CC1,-46.7%
16,CCOc1cc(C)nc(NCCc2ccc(OC)c(OC)c2)n1,-22.9%
17,Cc1ccc(C(=O)NC(=S)N2CCN(C)CC2)cc1,-1.37%
18,O=C(N/N=C/c1ccc(OC(=O)c2cccs2)cc1)c1cccc(F)c1,8.24%
19,CN(C)C(CNC(=O)c1cccc(S(=O)(=O)Nc2ccccc2Cl)c1)c1ccco1 (centres unmarked),-27.8%
20,O=S(=O)(NCC(c1ccco1)N1CCc2ccccc21)c1ccccc1 (centres unmarked),-15.9%
21,COc1cccc(NC(=O)NC2CCN(Cc3nnnn3Cc3ccc(F)cc3)CC2)c1,-53.2%
22,CNC(=O)[C@@]1(Cc2ccccc2)C=C[C@@H](C)N1C(C)=O,5.07%

row,Structure (SMILES),"hERG current change (%, negative = inhibition) at 10uM"
1,Cc1cc(C)n(-c2nc(NCC(C)O)c3c4c(sc3n2)CCCC4)n1 (centres unmarked),-4.89%
2,COc1c(Cl)cnn(-c2ccc(Cl)c(Cl)c2)c1=O,18.1%
3,CSc1nc2c(c(=O)n1-c1ccc(F)cc1)SCC2,5%
4,O=C(O)C1CC=C(Cl)CC1C(=O)NC1CCCCC1 (centres unmarked),15.5%
5,N/C(=N\c1nc2ccccc2o1)NC(=O)c1ccc(Cl)cc1,35.6%
6,CCn1c(SCc2ccccc2)nnc1C1CCN(S(=O)(=O)c2ccc(OC)cc2)CC1,-60.8%
7,COc1ccc(F)cc1C(=O)C1CCCN(C(=O)c2ccc(C(C)=O)s2)C1 (centres unmarked),-4.71%
8,COC(=O)c1[nH]c2ccc(C)cc2c1NC(=O)CN1CCN(c2ccc(F)cc2)CC1,-1.02%
9,O=C(Nc1ccc(S(=O)(=O)Nc2cnc3ccccc3n2)cc1)c1cccc(OC(F)F)c1,-14.1%
10,CCOc1ccc(C(=O)NCC(=O)NCC2CCCCC2)cc1OCC,7.79%
11,CNC(=S)N(C)/N=C1/C(=O)N(Cc2c(Cl)cccc2Cl)c2ccccc21,-7.77%
12,CCCc1cc(C(=O)OC)c(NC(=O)CCC(=O)O)s1,18.3%
13,Cc1cc(-c2ccccc2)nc(N2CCC(C(=O)NC(C)C)CC2)n1,4.06%
14,COc1ccc(OC)c(N(C(=O)c2snc(C(N)=O)c2N)C(C(=O)NCc2ccccc2)c2ccc(O)cc2)c1 (centres unmarked),-20.6%
15,COc1ccc(CCNC(=O)c2ccc3nc(N4CCCCC4)sc3c2)cc1OC,-2.71%
16,COc1ccc(C(=O)N[C@H](C(=O)Nc2ccc(OC)nc2)C(C)C)cc1,-6.37%
17,CCOC(=O)Cn1cnc2c(nnn2-c2ccccc2)c1=O,-19.1%
18,Cc1cc(N(C)Cc2ccccc2)nc(-c2ccccc2)n1,-24.1%
19,Cc1ccc(O)c(-c2cc(-c3cccc(F)c3)n[nH]2)c1,23.6%
20,CN(Cc1ccc(OCC(O)CN(C)Cc2ccccc2)cc1)Cc1nccn1C (centres unmarked),-4.14%
21,Fc1ccc(-c2nnc3sc(C4COc5ccccc5O4)nn23)cc1 (centres unmarked),-38.7%
22,Cc1[nH]n(C(N)=S)c(=O)c1N=Nc1ccccc1C(F)(F)F,8.71%
